# Results from article PMC4336329 (PLoS ONE, 2015).
# The whole screen tested about 310,000 compounds, of which about 14,000 (4.5%) showed an effect of 50% or more. Effects have a minus sign here. The list shows a part of the results.
# Molecular target: human ether-à-go-go-related gene (hERG) potassium channel (human, UniProt Q12809)
# Test: primary screen, population patch clamp on CHO cells stably expressing hERG
# 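Further: peak tail current of the secondary pulse compared with the same well before compound.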
# Chain of human ether-à-go-go-related gene (hERG) potassium channel (Q12809 whole entry, looked up): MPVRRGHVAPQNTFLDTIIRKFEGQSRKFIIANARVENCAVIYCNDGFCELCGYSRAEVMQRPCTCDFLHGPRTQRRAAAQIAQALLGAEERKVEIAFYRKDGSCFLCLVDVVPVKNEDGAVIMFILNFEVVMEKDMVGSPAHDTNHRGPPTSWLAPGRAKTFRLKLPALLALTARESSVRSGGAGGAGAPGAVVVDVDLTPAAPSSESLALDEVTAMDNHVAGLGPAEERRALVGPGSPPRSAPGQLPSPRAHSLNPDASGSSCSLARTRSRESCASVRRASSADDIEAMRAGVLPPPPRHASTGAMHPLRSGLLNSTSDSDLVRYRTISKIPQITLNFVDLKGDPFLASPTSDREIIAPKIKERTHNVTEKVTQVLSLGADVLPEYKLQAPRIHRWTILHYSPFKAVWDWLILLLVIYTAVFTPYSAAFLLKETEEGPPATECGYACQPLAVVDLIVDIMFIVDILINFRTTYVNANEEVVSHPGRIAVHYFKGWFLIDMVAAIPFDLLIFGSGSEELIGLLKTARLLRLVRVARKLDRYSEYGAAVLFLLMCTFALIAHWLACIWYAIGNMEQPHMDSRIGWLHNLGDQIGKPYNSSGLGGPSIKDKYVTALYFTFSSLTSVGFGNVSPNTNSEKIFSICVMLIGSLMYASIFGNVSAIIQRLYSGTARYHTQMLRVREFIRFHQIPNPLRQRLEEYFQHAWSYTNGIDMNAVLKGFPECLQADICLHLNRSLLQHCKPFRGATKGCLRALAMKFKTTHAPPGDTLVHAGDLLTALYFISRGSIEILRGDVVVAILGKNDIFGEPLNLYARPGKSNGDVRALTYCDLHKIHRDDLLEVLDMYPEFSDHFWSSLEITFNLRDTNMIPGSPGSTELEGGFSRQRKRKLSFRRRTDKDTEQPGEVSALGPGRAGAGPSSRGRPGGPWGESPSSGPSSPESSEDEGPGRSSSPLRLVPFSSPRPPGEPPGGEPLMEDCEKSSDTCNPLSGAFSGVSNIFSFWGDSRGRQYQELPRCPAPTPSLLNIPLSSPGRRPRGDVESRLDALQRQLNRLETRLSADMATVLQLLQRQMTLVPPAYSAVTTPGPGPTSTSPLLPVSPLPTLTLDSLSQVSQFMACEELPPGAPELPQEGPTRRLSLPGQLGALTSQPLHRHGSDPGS
row,Compound,"hERG current change (%, negative = inhibition) at 10uM [%]"
1,O=C1C=C(c2ccccc2Oc2ccccc2)C[C@@H](c2ccc3c(c2)OCO3)C1,6.04
2,CCOc1ccccc1C(=O)NCC(=O)N(C)Cc1ccccc1C,1.22
3,O=C(Nc1ccccc1C(=O)N1CCCC1)c1cccc(S(=O)(=O)N2CCCCC2)c1,-12.1
4,COC(=O)CNS(=O)(=O)c1ccc(C)cc1,8.15
5,CCCc1n[nH]c(=S)n1Cc1ccco1,7.81
6,O=C(N/N=C/c1cc(Cl)cc([N+](=O)[O-])c1O)c1cc(-c2ccccn2)nc2ccccc12,15.8
7,O=C(CN1CCc2ccccc2C1)Nc1ccc(F)cc1F,-24
8,CSc1ccccc1NC(=O)CN(C)C(=O)Cc1c(F)cccc1Cl,6.45
9,S=C(NCc1ccc2c(c1)OCO2)NC1CCN(Cc2ccccc2)CC1,20.6
10,CC1CCCC(C)N1NC(=S)Nc1ccc(OC(F)F)cc1 (centres unmarked),-68.3
11,Cc1cc2cc(CNC(=O)NC3CCCCC3)ccc2[nH]1,-7.94
12,Clc1cccc(OCc2nc(-c3ccncc3)no2)c1,-5.46
13,Cc1nn(CC(=O)NC(=O)c2ccccc2)c(C)c1[N+](=O)[O-],-18.5
14,COc1cccc(-n2nnnc2SCC(=O)NC2CCCCC2)c1,3.1
15,COc1ccc(CC(=O)OCc2cc(=O)n3cc(Br)ccc3n2)cc1OC,-27.5
16,O=C(C1CCN(S(=O)(=O)N2CCC3(CC2)OCCO3)CC1)N1CCCCC1,3.78
17,NNC(=O)c1ccc(O)cc1O,-1.63
18,CCc1cc2c(SCC(=O)Nc3cc(C)on3)ncnc2s1,13.9
19,COc1ccc(C2NC(=S)NC(O)(C(F)(F)F)C2C(=O)c2cccs2)cc1 (centres unmarked),12
20,O=C(CSc1n[nH]c(-c2ccccc2)n1)NC1CCCCC1,6.47
21,C/C(=N/NC(=O)c1ccc(C)s1)c1ccncc1,21
22,O=C(c1cnc2sccn2c1=O)N1CCc2ccccc2C1,2.07
23,Cc1nc(NC(=O)COC(=O)CCC(=O)c2cccs2)c(Cl)cc1Cl,21

row,Compound,"hERG current change (%, negative = inhibition) at 10uM [%]"
1,COc1ccc(S(=O)(=O)N2CCN(CCOc3ccccc3Cl)CC2)cc1OC,-33.4
2,Cc1cc2nc(-c3ccc(SCC(=O)Nc4ccc5c(c4)OCCO5)nc3)[nH]c2cc1C,2.26
3,COc1ccccc1NC(=O)c1sc(Cl)nc1C,2.93
4,O=C(NCc1ccc(Cl)c(Cl)c1)c1cccnc1,-5.36
5,COc1cccc(Sc2cc(N3CCOCC3)nc(-c3ccccc3)n2)c1,-5.5
6,O=C(NNC(=O)c1ccccc1F)c1cccc(-n2cccc2)c1,-22.9
7,CCCOc1ccc(NC(=O)CC2C(=O)N(Cc3ccccc3)C(=S)N2Cc2cccs2)cc1 (centres unmarked),7.68
8,CCOc1ccccc1N(C(C)=O)S(=O)(=O)c1ccc(Cl)cc1,-8.79
9,CCCCc1c(O)nc(SCC(=O)NCC2CCCO2)[nH]c1=O (centres unmarked),4.14
10,COc1ccccc1N1CCN(/N=C\C(Br)=C\c2ccccc2)CC1,10.2
11,COCCCNC(=O)c1c(N)n(-c2ccc(S(N)(=O)=O)cc2)c2nc3ccccc3nc12,0.473
12,CSc1ccc(CN(C)C(=O)c2ccc(S(=O)(=O)Nc3ccccc3)cc2)cc1,-12.4
13,CCOc1nonc1C(=N)/C(C(C)=O)=C(\C)O,7.66
14,O=c1cc(-c2ccccc2Cl)oc2c(NS(=O)(=O)c3cccc4nsnc34)ccc(O)c12,3.75
15,O=C1CCCc2[nH]c3cccc(/C(=C/c4ccccc4)c4ccccc4)c3c21,8.64
16,COc1cccc(OC)c1C(=O)Nc1cccc(C(C)=O)c1,-1.8
17,CCCCn1c(N)c(Sc2ccc([N+](=O)[O-])cc2)c(=O)[nH]c1=O,-79.5
18,O=C(c1ccccc1F)N1CCN(c2cccc(C(F)(F)F)c2)CC1,-36.5
19,CC(C)(C)N1CC(C(=O)Nc2ccc(S(=O)(=O)N3CCCCC3)cc2)CC1=O (centres unmarked),0.361
20,O=C1c2ccccc2CN1Cc1ccccc1,9.91
21,CC1(C)C(c2ccccc2)=NC(c2cccnc2)=[N+]1[O-],14.8
22,C=CCn1c(SCC(=O)c2ccc(O)c(O)c2)nnc1-c1ccccc1OC,3.16
23,COCCCNC(=O)CN1C(=O)COc2ccc(S(=O)(=O)N3CCCCCC3)cc21,12.2

row,Compound,"hERG current change (%, negative = inhibition) at 10uM [%]"
1,O=S(=O)(NN=C1CCCCCC1)c1ccccc1,-0.144
2,CCN(CC)C(=O)CC(c1ccc(OC)cc1)c1c(O)cc(OC)cc1OC (centres unmarked),-1.57
3,COc1ccc2nc(-c3ccccc3)[nH]c2c1,-1.4
4,O=C(COC(=O)Cc1cccc(C(F)(F)F)c1)NC1CC1,3.25
5,CC(C)Cn1c(N)c(C(=O)COC(=O)/C=C/c2ccccc2)c(=O)n(C)c1=O,-41.7
6,CCC(=O)c1ccc(OCC(O)CNCCc2ccc(Cl)cc2)cc1 (centres unmarked),-72.1
7,O=C(Nc1cc(Cl)ccc1Cl)c1ccc(OC(=O)c2ccco2)cc1,-12.8
8,COc1cccc2sc(NC(=O)c3ccc(Br)s3)nc12,13.8
9,CCn1c(SCC(=O)N2CCCc3ccccc32)nc2ccccc2c1=O,-18.7
10,CCOC(=O)CCc1c(C)nc2c(c(C)nn2-c2ccccc2)c1C,11.7
11,Cc1cccc(Nc2ccccc2C(=O)OCC(=O)NCc2ccco2)c1C,-4.61
12,O=S(=O)(N/N=C\C=C\c1ccccc1)c1ccc(Cl)cc1,-7.56
13,CCOC(=O)c1cc(NC(=O)N2CCCc3ccccc32)c(C)nc1C,-1.48
14,COc1ccccc1N1CCN(S(=O)(=O)CCNC(=O)C2CC(=O)N(c3ccccc3)C2)CC1 (centres unmarked),8.1
15,CCNc1ccccc1CP(=O)(c1ccccc1)c1ccccc1O (centres unmarked),14.4
16,O=c1oc2ccccc2c(CNc2ccccc2)c1[N+](=O)[O-],13.7
17,CC(C)C[C@H](NC(=O)N1CCn2c1nc1ccccc12)C(=O)N[C@@H](Cc1ccccc1)C(=O)O,-0.882
18,COc1cc(NC(=O)CSc2ccc(-c3ccco3)nn2)cc(OC)c1,11
19,CCN(CC)CCOc1cc2c(nn1)Oc1ccccc1N2C.Cl.O,-32.1
20,CCOc1ccccc1C(=O)NN1CCOCC1,19.4
21,Nn1cc(-c2ccccc2)nc1SCC(=O)Nc1ccc2c(c1)OCO2,-31.8
22,Cc1ccc(NCc2nnc(SCC(=O)c3ccc4c(c3)OCCO4)o2)c(C)c1,13.7
23,COc1ccc(C(=O)N2CCC(N3CCN(c4ccccc4)CC3)CC2)cc1.O=C(O)C(=O)O,-57.6

row,Compound,"hERG current change (%, negative = inhibition) at 10uM [%]"
1,CC(=O)OC1C(OC(C)=O)N(C(C)=O)C(=O)N1C(C)=O (centres unmarked),6.74
2,CC(C)CCOP(=O)(c1ccc(N(C)C)cc1)C(O)c1c(Cl)cccc1Cl (centres unmarked),-23.2
3,O=C1c2ccccc2NC(c2ccc(F)cc2)N1Cc1ccco1 (centres unmarked),-43.6
4,N#Cc1c(NC(=O)COC(=O)c2ccc(S(=O)(=O)N3CCCC3)cc2)sc2c1CCCCC2,6.38
5,Cc1c(-c2ccccc2Cl)nc2ccccc2c1C(=O)O,16.7
6,CCOC(=O)C1=C(N)Oc2c(oc(CO)cc2=O)C1c1ccccc1 (centres unmarked),-9.82
7,CCOC(=O)C1=C(C)N(Cc2ccc(C(=O)O)cc2)C(=O)NC1c1ccc([N+](=O)[O-])cc1 (centres unmarked),17.1
8,COc1ccccc1CCNC(=O)/C(=C/c1cccnc1)NC(=O)c1ccccc1,-33.9
9,Cc1ccc(NC(=O)[C@H](CC(C)C)NC(=O)[C@@H]2Cc3ccccc3CN2)cc1,-2.84
10,O=C(O)c1ccc(NC(=O)C2C3CCC(O3)C2C(=O)O)cc1 (centres unmarked),11.6
11,CN(CC(=O)Nc1ccc(F)cc1)C(=O)COC(=O)CNC(=O)c1ccc(Cl)cc1Cl,-2.14
12,CCc1nnc(NC(=O)CSc2ccc(-c3ccc(F)cc3)nn2)s1,22
13,CCOC(=O)c1c(C)[nH]c(C(=O)OCc2csc(CC(=O)Nc3ccccc3C)n2)c1C,24.4
14,Cn1c(C(=O)NCCN2CCc3ccccc3C2)cc2c(=O)n(C)c3ccccc3c21,-11.8
15,O=C(CSc1nncs1)Nc1cc(-c2ccccc2)nn1-c1ccccc1,-39.1
16,O=C1CC(N2CCSCC2)C(=O)N1c1ccc(F)cc1 (centres unmarked),-6.61
17,COc1ccc(NC(=O)CSc2nc3ccsc3c(=O)n2CCC(=O)O)c(OC)c1,12.5
18,CCN1CCN(C(=S)NC(=O)/C=C/c2cccs2)CC1,22.7
19,C#CCn1cc(Cl)cc(C(=O)Nc2ccccc2)c1=O,19.3
20,CCN(CC)c1ccc(NC(=O)CSc2ccsc2[N+](=O)[O-])c(C)c1,5.74
